The source of these data is US9234216B2, “Variant CBH I polypeptides” (BP Corporation North America Inc., priority 2011, dated 2016).

The chains are these.
B1: SEQ ID 65, 66: BD29555 CBH I variant: V121T (protein)
chain: MSALNSFNMYKSALILGSLLATAGAQQIGTYTAETHPSLSWSTCKSGGSCTTNSGAITLDANWRWVHGVNTSTNCYTGNTWNTAICDTDASCAQDCALDGADYSGTYGITTSGNSLRLNFTTGSNVGSRTYLMADNTHYQIFDLLNQEFTFTVDVSHLPCGLNGALYFVTMDADGGVSKYPNNKAGAQYGVGYCDSQCPRDLKFIAGQANVEGWTPSSNNANTGLGNHGACCAELDIWEANSISEALTPHPCDTPGLSVCTTDACGGTYSSDRYAGTCDPDGCDFNPYRLGVTDFYGSGKTVDTTKPITVVTQFVTDDGTSTGTLSEIRRYYVQNGVVIPQPSSKISGVSGNVINSDFCDAEISTFGETASFSKHGGLAKMGAGMEAGMVLVMSLWDDYSVNMLWLDSTYPTNATGTPGAARGSCPTTSGDPKTVESQSGSSYVTFSDIRVGPFNSTFSGGSSTGGSSTTTASGTTTTKASSTSTSSTSTGTGVAAHWGQCGGQGWTGPTTCASGTTCTVVNPYYSQCL
B2: SEQ ID 69, 70: BD29555 CBH I variant: L116T (protein)
chain: B1 chain with L116T, T121V
B3: SEQ ID 73, 74: BD29555 CBH I variant: T35A, V401A (protein)
chain: B1 chain with T35A, T121V, V401A
B4: SEQ ID 83, 84: BD29555 CBH I variant: L404T (protein)
chain: B1 chain with T121V, L404T
B5: SEQ ID 75, 76: BD29555 CBH I variant: V392T (protein)
chain: B1 chain with T121V, V392T
B6: SEQ ID 67, 68: BD29555 CBH I variant: G113N (protein)
chain: B1 chain with G113N, T121V
B7: SEQ ID 77, 78: BD29555 CBH I variant: Y399D (protein)
chain: B1 chain with T121V, Y399D
B8: SEQ ID 79, 80: BD29555 CBH I variant: V401D (protein)
chain: B1 chain with T121V, V401D
B9: SEQ ID 87, 88: BD29555 CBH I variant: A221V, V401A, G474W (protein)
chain: B1 chain with T121V, A221V, V401A, G474W
B10: SEQ ID 85, 86: BD29555 CBH I variant: S463Y (protein)
chain: B1 chain with T121V, S463Y
B11: SEQ ID 71, 72: BD29555 CBH I variant: T268V (protein)
chain: B1 chain with T121V, T268V
B12: SEQ ID 81, 82: BD29555 CBH I variant: V392A, V401A, T417A (protein)
chain: B1 chain with T121V, V392A, V401A, T417A
B13: SEQ ID 89, 90: BD29555 CBH I variant: A472M (protein)
chain: B1 chain with T121V, A472M

Where a chain is given by its changes, count along the chain named. In names and notes the source's numbering stands.

The nature of one data set: Thermotolerance: residual activity on MUL after 20 minute heat challenge. Conditions: heat challenge 20 minutes at 60 C, residual activity on MUL at 22 C vs non-challenged sample. The class given is biochemical. How it is done: Samples heat challenged at 22 C, 60 C, 65 C, 70 C, 75 C, and 80 C for 20 minutes. After heat challenge, samples cooled on ice. Residual activity determined on MUL at 22 C.
(§1) Calculations for % residual activity: % Residual Activity=Activity heat challenged sample/Activity non-challenged sample (22 C). All residual activities calculated indepentyl from parent residual activity Melting Temperatures were determined by Differential Scanning calorimetry, using 500-700 μg/mL of degassed sample.
Take B1: the “% Residual Activity @ 60° C.” value is recorded as 83%.
The same measure, in the same setting: the result for B2 reads 107%; that for B3, 100%; that for B4, 93%.
On the same count and under the same terms, the result for B5 reads 94%; that for B6, 100%; that for B7, 91%.
B8: the “% Residual Activity @ 60° C.” value is 93%.
The same measure, in the same setting: for B9 the value was 99%; for B10, 99%; for B11, 92%.
Consider B12, for which the “% Residual Activity @ 60° C.” value came out at 96%.
Still for that read-out and setting: the result for B13 reads 96%.

Still in this data set, the particulars now being: heat challenge 20 minutes at 65 C, residual activity on MUL at 22 C vs non-challenged sample.
As for B1, the “% Residual Activity @ 65° C.” value came to 64%.
B2: the “% Residual Activity @ 65° C.” value is 89%.
Still for that read-out and setting: for B3 the value was 95%.
Still for that read-out and setting: the result for B4 reads 77%; that for B5, 70%; that for B6, 87%.
Still for that read-out and setting: the result for B7 reads 43%; that for B8, 88%; that for B9, 96%.
In the case of B10, the “% Residual Activity @ 65° C.” value was 96%.
On the same count and under the same terms, for B11 the value was 65%; for B12, 88%; for B13, 47%.

Staying with this data set, now noted: heat challenge 20 minutes at 70 C, residual activity on MUL at 22 C vs non-challenged sample.
Take B1: the “% Residual Activity @ 70° C.” value is 60%.
Same read-out and setting: the result for B2 reads 72%.
As to B3, the “% Residual Activity @ 70° C.” value is reported as 55%.
Still for that read-out and setting: the result for B4 reads 69%; that for B5, 56%.
Same read-out and setting: the result for B6 reads 62%; that for B7, 52%; that for B8, 60%.
B9: the “% Residual Activity @ 70° C.” value stood at 35%.
Same read-out and setting: the result for B10 reads 41%; that for B11, 33%; that for B12, 71%.
On to B13, for which the “% Residual Activity @ 70° C.” value came out at 28%.

Still in this data set, the particulars now being: heat challenge 20 minutes at 75 C, residual activity on MUL at 22 C vs non-challenged sample.
As for B1, the “% Residual Activity @ 75° C.” value came out at 63%.
As to B2, the “% Residual Activity @ 75° C.” value was 71%.
Same read-out and setting: the result for B3 reads 57%; that for B4, 69%.
The same measure, in the same setting: for B5 the value was 54%; for B6, 71%.
Same read-out and setting: for B7 the value was 56%; for B8, 62%; for B9, 43%.
As to B10, the “% Residual Activity @ 75° C.” value worked out at 42%.
On the same count and under the same terms, for B11 the value was 44%; for B12, 67%; for B13, 54%.

Still in this data set, the particulars now being: heat challenge 20 minutes at 80 C, residual activity on MUL at 22 C vs non-challenged sample.
As to B1, the “% Residual Activity @ 80° C.” value was 59%.
Same read-out and setting: for B2 the value was 74%; for B3, 68%; for B4, 72%.
Still for that read-out and setting: for B5 the value was 59%.
Still for that read-out and setting: for B6 the value was 69%; for B7, 58%.
For the molecule B8, the “% Residual Activity @ 80° C.” value is given as 67%.
Same read-out and setting: for B9 the value was 51%.
Consider B10, for which the “% Residual Activity @ 80° C.” value was 48%.
With B11, the “% Residual Activity @ 80° C.” value is 42%.
Consider B12, for which the “% Residual Activity @ 80° C.” value is 71%.
For B13, the “% Residual Activity @ 80° C.” value amounted to 52%.

The next data set can be described thus: Melting temperature by Differential Scanning calorimetry. The class given is physicochemical. As to conditions: DSC, 500-700 μg/mL degassed sample. As for the experimental part:
as §1
For orientation: Differential scanning calorimetry records heat flow against a reference as temperature is scanned.
As for B1, the “Melting Temperature” value is 69.6 °C.
The same measure, in the same setting: for B2 the value was 71.2 °C.
The same measure, in the same setting: the result for B3 reads 73.8 °C; that for B4, 70.3 °C.
Still for that read-out and setting: for B5 the value was 70.7 °C; for B6, 71.6 °C; for B7, 68.7 °C.
For the molecule B8, the “Melting Temperature” value is 73.1 °C.
Consider B9, for which the “Melting Temperature” value turned out to be 73.3 °C.
Still for that read-out and setting: for B10 the value was 74.2 °C.
Still for that read-out and setting: for B11 the value was 71.1 °C; for B12, 74.9 °C; for B13, 70.7 °C.
